# ± gives the standard deviation of the averaged measurements. The list shows a part of the results.
# Test system: PfAP2-G AP2 domain (GST-tagged)
# Experiment: gcPBM binding intensity (ln(normalized median fluorescence intensity)); higher = stronger DNA binding
# How it was run: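 Using an Agilent 4 × 180k array, primer-extended double-stranded 36-bp intergenic genomic probes and negative controls were exposed for 1 h to GST-fused P. falciparum DNA-binding domains expressed in E. coli. Binding was carried out in 1× PBS with 1% milk, 0.2 mg/ml BSA, 0.5% salmon testes DNA and 0.03% Triton X-100, and protein was detected with Alexa488 anti-GST antibody and a 488 nm scan. Binding intensity is the highest Masliner-normalised natural-log median intensity across replicate spots of either probe orientation.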
row,Sequence,gcPBM binding intensity (ln)
1,ATATAAATAATGTTGACACACACAATAATCTTATTA [CACACA_site9197],10.05 ± 0.085
2,AAAATATGGATTCATGATATTAAATTTAATTTAATG [XGTACX_negctrl_site214],9.95 ± 0.085
3,GTTATACTCATATATACACACATATGTAAATATATA [CACACA_site5764],10.2 ± 0.25
4,ATTATATTAGGTAATCAGTTAAATGTTTCCTTTTTA [CACACA_negctrl_site1229],9.77 ± 0.085
5,ATACGAAAAAAAAAAAGTACACAAAAATATCTACAT [XGTACX_site2051],11.7 ± 1.1
6,TATTTTCAACATATTTGTACATATTTTATATTTTAA [XGTACX_site101],10.9 ± 0.46
7,CGCGCACCCAGACACACACACACACCGATATATATA [CACACA_site8687],10.4 ± 0.35
8,AAAAAAAAAAAAAGTACACACTTATAAAATATTATG [CACACA_site4639],11.6 ± 1.1
9,TAAATTATCTTTTTATGTACTTATTTTTATTATTTT [XGTACX_site3158],11.4 ± 0.78
10,AAAATAAATCTGAATGGGGTATAATATATCTTTGTT [CACACA_negctrl_site744],9.855 ± 0.049
11,AAAAGGAACAGACACACACACATATATATATATATA [CACACA_site3587],10.4 ± 0.69
12,TGCATACTAGCCAATTGTACATAATTTTATTTTAAA [XGTACX_site513],10.9 ± 0.59
13,ATTATGATTTTATAGAACTGAACATTTACATTAAAT [GTGCAC_negctrl_site192],9.855 ± 0.064
14,TGCTTTTATTTCTTCACACATATGTAAAAAAAAGAA [CACACA_site5906],10.3 ± 0.51
15,AAAAAATTCTGGTACTGTACACATTTTTTTAAATTT [XGTACX_site6904],11.7 ± 1
16,ATTTATTATATATACACACATACATATATATATATA [CACACA_site2159],10.04 ± 0.078
17,ATAACAAAATAAAACACACACACAAATGTACTTATA [CACACA_site8768],11.4 ± 0.79
18,AAATAAAAGGTTGAGAGTACATTTTTGTGTATGTAT [XGTACX_site5547],10.9 ± 0.47
19,AAAAAAAAAATACAACAAAGTTAAATAAATAAATAA [GTGCAC_negctrl_site402],9.63 ± 0.042
20,AGCTCTCAAAATTATTCACACGTGTCCTGTTATATA [CACACA_site5415],10.3 ± 0.071
21,ATATTTCATTAATGAACACACAAAGAGGTATATAAA [CACACA_site1519],10.5 ± 0.49
22,ATATTTAAAAATATAGTGCAATTATTCTAATGTGTT,9.835 ± 0.078

row,Sequence,gcPBM binding intensity (ln)
1,GTGCTTATTTATACATGTACAAATGATAAGTTTGTA [XGTACX_site169],10.9 ± 0.44
2,GAAATAAATATATATGCATGTACTTTAATATTATTA [TGCATGCA_site904],11.2 ± 0.61
3,TAAATATATTCATAAAGTACAAAGCAAAATTGTCTA [XGTACX_site7274],10.8 ± 0.43
4,TTATTAAAATATTCTAGTACATATAAAAGGAGAACA [XGTACX_site4374],10.9 ± 0.67
5,TTTTTTCTTTTATGTGAAATGTAATATTGTTATATA [GTGCAC_negctrl_site715],9.77 ± 0.17
6,AGGTGATTGATATATACACACATACCTATATTTATA [CACACA_site7348],9.78 ± 0.15
7,TGTTTATTTAATAATATTTTTTTTTTTATTATATTA [XGTACX_negctrl_site56],9.435 ± 0.078
8,CACACAGGTAAAAAGGTGCAGTTGAAATATTCCTCA [GTGCAC_site9730],10.1 ± 0.12
9,ATATATTATTTTAAATGTACTCATAATAGAAATGTC [XGTACX_site40],11.5 ± 1.2
10,ATATAAAGAAAAGGAACACACAAATATATATATATA [CACACA_site463],9.86 ± 0.13
11,ACATCGATTTATATTCTGCACTGAAGAAACTACAAC [GTGCAC_site9967],10.1 ± 0.16
12,ATTAAATATATTAAATGTACATAATATATATATATA [XGTACX_site5032],11.3 ± 0.68
13,TCAAACCAGTTGATGTGTACACATATAGTAATAATT [XGTACX_site6014],11.6 ± 0.89
14,TTTATTTGATGAACATGTACAAAAAAACAAAGAACA [XGTACX_site823],11.1 ± 0.48
15,TTATATTTTTACAAGAGTACATATATATATATATAT [XGTACX_site5383],11.4 ± 1.1
16,GTGCAATATTTATTTTGTACATATTTATCAATAAAC [XGTACX_site8297],11 ± 0.82
17,AAGAAAAAAAAAAAAAAAGATACTTTTTTAAAACTA [TGCATGCA_negctrl_site13],9.94 ± 0.17
18,TGATATTTTATTATTAAAATATATACATATATATAT [CACACA_negctrl_site1456],9.96 ± 0.5
19,ATAAAAATAAAATGGACACACATATATACCTATTTG [CACACA_site5761],10.8 ± 0.47
20,AGAATAGAATAAAAAACACACATTTACAACATTATT [CACACA_site3894],9.72 ± 0.28
21,TATTTACACAAAATAAAATATATTATATATATATAT [TGCATGCA_negctrl_site381],9.68 ± 0.085
22,TTGCACAGATTAATCAAAAATTTTAAACCAAATATA [XGTACX_negctrl_site38],9.995 ± 0.035

# From the supplement of paper PMC11417369
